Reference: PubChem BioAssay AID1745853 (National Center for Advancing Translational Sciences (NCATS), 2022)
The list shows a part of the results. Further columns of the screen follow, without active or inactive calls.

What was measured:
Test in all cases: Primary Screen for Target Class Profiling of Small Molecule Inhibitors of Methyltransferases
[1] = molecular target: Glycine N-methyltransferase (Homo sapiens) (UniProt Q14749); details: purified enzyme, MTase-Glo SAH luminescence; measured here: GNMT inhibition; at 40 µM; stronger effect = lower value
Summary of the method: (§1)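 Each enzyme was assayed with SAM and its substrate. SAH formation detected by MTase-Glo luminescence; single-point 40 uM screen[…].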

[2] = molecular target: Guanidinoacetate N-methyltransferase (Homo sapiens) (UniProt Q14353); details: purified enzyme, MTase-Glo SAH luminescence; measured here: GAMT inhibition; at 40 µM; stronger effect = lower value
Summary of the method: as §1

[3] = molecular target: Histamine N-methyltransferase (Homo sapiens) (UniProt P50135); details: purified enzyme, MTase-Glo SAH luminescence; measured here: HNMT inhibition; at 40 µM; stronger effect = lower value
Summary of the method: as §1

[4] = molecular target: Nicotinamide N-methyltransferase (Homo sapiens) (UniProt P40261); details: purified enzyme, MTase-Glo SAH luminescence; measured here: NNMT inhibition; at 40 µM; stronger effect = lower value
Summary of the method: as §1

[5] = molecular target: Phenylethanolamine N-methyltransferase (Homo sapiens) (UniProt P11086); details: purified enzyme, MTase-Glo SAH luminescence; measured here: PNMT inhibition; at 40 µM; stronger effect = lower value
Summary of the method: as §1
On the % scale 0 is the no-effect control and ±100 the full control effect.

SMILES	activity change, negative = inhibition [1]	activity change, negative = inhibition [2]	activity change, negative = inhibition [3]	activity change, negative = inhibition [4]	activity change, negative = inhibition [5]
CC(C)CNC(=O)c1ccc2c(=O)n(C)c3nn(CC(=O)NCc4ccccc4Cl)c(=O)n3c2c1	3.52%	4.6%	9.39%	-5.89%	-0.518%
Cc1cc(C)cc(NC(=O)Cn2nc3n(C(C)C)c(=O)c4ccc(C(=O)NC5CCCC5)cc4n3c2=O)c1	-3.74%	0.218%	-3.8%	2.23%	0.277%
Cc1ccc(C(C)C)c(O[C@@H]2O[C@H](CO)[C@@H](O)[C@H](O)[C@H]2O)c1	-3.01%	0.385%	11.8%	-12.9%	-10.4%
Cn1c(=O)n(C)c2cc(S(=O)(=O)Nc3ccc(N4CCN(S(C)(=O)=O)CC4)cc3)ccc21	-6.8%	4.45%	-1.02%	1.01%	-1.63%
Cc1ccc(-c2ncccc2CNS(=O)(=O)c2ccc(C#N)cc2)cc1	13.6%	3.57%	10.4%	4.83%	11%
COc1cccc(CN2C(=O)c3cc4sccc4n3CC2(C)C(=O)NC2CCCCCCC2)c1 (stereo not given)	-1.88%	0%	3.92%	-3.78%	-1.58%
CCc1ccc(CNC(=O)c2ncn3c2C(=O)N(C2CC2)C(C)(C(=O)NCc2ccc(F)cc2)C3)cc1 (stereo not given)	-4.81%	1.85%	3.18%	-4.09%	1.68%
Cc1ccc(NC(=O)c2cc3n(n2)CC(C)(C(=O)NC2CCCCCC2)N(C)C3=O)c(Cl)c1 (stereo not given)	5.29%	0.447%	8.51%	4.81%	4.35%
Cc1cnc(CCNC(=O)C2(c3ccccc3)CC2)n1Cc1ccccc1	-5.59%	-2.69%	-32.7%	-15.6%	5.83%
CSCC[C@@H]1NC(=O)c2cc(NC(=O)c3cc(-c4ccccn4)n[nH]3)ccc2NC1=O	-12.5%	-7.86%	-6.41%	-12.2%	0.216%
Cc1ccc(C)c(C(=O)Cn2nc3n(Cc4ccc(F)cc4)c(=O)c4ccccc4n3c2=O)c1	-1.48%	8.39%	2.87%	-5.77%	-0.42%
CCCN1C(=O)c2c(C(=O)NCc3ccccc3Cl)ncn2CC1(C)C(=O)NC1CCCC1 (stereo not given)	-1.62%	0%	2.89%	2.17%	1.72%
O=C(c1cccc(Cl)c1F)N1CCN(Cc2cccc(Nc3nccs3)n2)CC1	-11.5%	1.03%	1.7%	-46.3%	-9.93%
COC[C@H]1NC(=O)CC[C@H]1C(=O)NC1CCN(Cc2ccccc2)CC1	-1.18%	-1.5%	-1.02%	3.65%	3.97%
CCCn1c(=O)c2ccc(C(=O)NCC(C)C)cc2n2c(=O)n(CC(=O)Nc3cccc(CC)c3)nc12	2.6%	0%	2.17%	-0.064%	4.05%
O=C1Nc2ccccc2C12CN(Cc1ccc(C(F)(F)F)cc1)C2	-13.4%	-7.11%	-10.6%	-23%	-3.89%
CC1(C(=O)NC2CCCCCC2)Cn2c(cc3occc32)C(=O)N1C1CCCC1 (stereo not given)	-4.88%	0%	2.42%	-7.15%	-1.87%
CCn1ncc(CN2CCCCCCNC(=O)[C@@H]3CCC[C@@H]32)c1C	-3.77%	1.47%	2.44%	-4.74%	-1.48%
FC(F)(F)c1ccccc1-n1ccnc1	-10.1%	0.296%	-3.71%	-13.6%	3.7%
O=C(O)C1CCc2nnc(C3CCN(C(=O)c4ccccc4)C3)n21 (stereo not given)	-6.75%	-7.67%	-1.53%	-16.2%	-10.6%
Cc1ccc(CNC(=O)c2cc3n(n2)CC(C)(C(=O)NCc2ccc(F)cc2)N(C)C3=O)o1 (stereo not given)	7.64%	0%	1.93%	7.16%	6.77%

SMILES	activity change, negative = inhibition [1]	activity change, negative = inhibition [2]	activity change, negative = inhibition [3]	activity change, negative = inhibition [4]	activity change, negative = inhibition [5]
N[C@H]1CN(c2cncc(C(=O)N3CCCCC3)n2)C[C@@H]1C1CC1	0.444%	-0.465%	1.18%	-5.19%	13.6%
COCCNC(=O)[C@@H](C)C1CCc2c(C)cc(OC)c(C)c2[C@@H]1O (stereo not given in full)	-6%	-4.72%	-3.11%	-8.42%	-4.48%
COC1CCC12CCN(Cc1ccc(F)c(F)c1)CC2 (stereo not given)	-3.8%	-3.11%	-0.337%	-3.22%	10.7%
COC(=O)[C@H](CC1CCCCC1)NC(=O)[C@@H]1C[C@@H](NC(=O)Nc2cccc(F)c2)CCN1C(=O)CCC(=O)O	-1.55%	-3.62%	-0.564%	-0.511%	-2.35%
O=C(NCCc1ccccc1)c1ccc2c(=O)[nH]c3c(C(=O)NCC4CCCO4)sc(=S)n3c2c1 (stereo not given)	-52.1%	-10.4%	-46.3%	-39.7%	-52.5%
C/C(=C\C1CCC(C)C2CCC3(C)OC123)C(=O)O (stereo not given)	1.72%	-1.99%	8.83%	-17.2%	4.05%
Cc1ccc(-c2nc(CNS(=O)(=O)C3CC3)[nH]c2-c2ccccn2)cc1	-5.75%	-2.71%	-1.98%	-12.4%	-0.243%
N#Cc1ccc(CN2CCC(N3CCOC3=O)CC2)cc1	-6.41%	-10.9%	-5.69%	-13.3%	-9.78%
CCCCOC(=O)NS(=O)(=O)c1sc(CC(C)C)cc1-c1ccc(Cn2c(CC)nc3c(C)cc(C)nc32)cc1	-13.4%	8.19%	-1.98%	-20.1%	8.85%
Cc1cc(Cl)ccc1NC(=O)c1ncn2c1C(=O)N(C1CC1)C(C)(C(=O)NC1CCCC1)C2 (stereo not given)	-2.86%	0%	6.84%	2.15%	3.08%
CN(C)CCN1CC2(CCCN(C(=O)CCCn3cnnn3)C2)CCC1=O (stereo not given)	0.085%	-4.31%	0.559%	-4.36%	3.04%
O=c1c2ccccc2n2c(-c3ccc(Cl)cc3)nnc2n1Cc1ccccc1	-5.08%	3.61%	-1.2%	2.36%	-4.52%
COCCN1C(=O)c2ccccc2C(C(=O)NCc2ccc(Cl)cc2)C12CCCC2 (stereo not given)	-8.36%	-8.25%	-1.86%	-7.29%	-0.684%
Cc1nn2c(c1-c1ccccc1N1CCCC1)N(C(=O)C1CCOCC1)CCC2	-17.4%	-10.1%	-4.45%	-17.5%	-8.42%
O=C(C1CCOC1)N1CCC(C(=O)O)(n2ccc(-c3ccco3)n2)CC1 (stereo not given)	-6.03%	1.32%	1.2%	1.72%	14.8%
NCCOc1cc(C(=O)Nc2cc(OCCN)c3ccccc3n2)nc(C(=O)Nc2cc(OCCN)c3ccccc3n2)c1	-6.6%	0.955%	-63.4%	-13%	-3.6%
Cc1ccc2c(c1)C=Cc1cc(C)ccc1C2c1cn(Cc2ccc(C(=O)Nc3nn[nH]n3)o2)c(=O)[nH]c1=S	-11.2%	13.9%	1.46%	-27.8%	-4.54%
O=C(c1ccoc1)N1CCC(Nc2cccnc2)C1 (stereo not given)	-39%	-18.8%	-1.68%	-6.05%	-29.4%
CC(=O)NC(CO)C(=O)N1CCc2c(nc(-c3cccnc3)nc2N(C)C)C1 (stereo not given)	-5.66%	-8.01%	-4.48%	-13.9%	-8.23%
C=CC1(C)C=C2CC[C@H]3[C@@](C)(C(=O)O)CCC[C@]3(C)C2CC1 (stereo not given in full)	-1.75%	1.66%	4.79%	-18.8%	-4.9%
O=C(NCCNC(=O)c1cccnc1)c1cccnc1	-0.184%	0%	3.35%	18.8%	1.09%

SMILES	activity change, negative = inhibition [1]	activity change, negative = inhibition [2]	activity change, negative = inhibition [3]	activity change, negative = inhibition [4]	activity change, negative = inhibition [5]
CC(C)CNC(=O)c1ccc2c(=O)n(CC(C)C)c3nn(Cc4ccc(F)cc4Cl)c(=O)n3c2c1	7.63%	2.03%	8.82%	7.16%	8.76%
Cc1cc(OCCN2CCOCC2)nn1-c1ccc2ccccc2c1	-7.15%	-7.6%	-5.47%	-19.2%	-8.6%
CC(C)C(=O)N1CCC2(CCCCO2)CC1	-1.04%	-2.15%	-0.077%	-7.5%	-4.09%
Oc1ccccc1O	-30%	13.2%	0.091%	-7.53%	6.98%
COc1cc(OC)c2c(=O)[nH]c(-c3cc(C)c(OCCO)c(C)c3)nc2c1	-15.6%	-5.19%	-15.7%	-25.7%	-12.4%
Cc1ccsc1-c1[nH]nc2ncc(-c3ccccc3O)nc12	-39.4%	-27.7%	-32.2%	-27.6%	-13%
CN(C(=O)c1ccc2oc(Cc3ccc(Cl)cc3)nc2c1)[C@H]1COC[C@@H]1O	-2.97%	-1.81%	0.613%	-10%	1.55%
O=C(Cn1c2ccccc2c2nc3n(c(=O)c21)CCS3)N1CCCC1	-3.31%	-6.23%	7.85%	-11.4%	2.9%
CC(C)(C)NC[C@H](O)COc1nsnc1N1CCOCC1	-5.17%	2.31%	-1.7%	-3.64%	6.75%
COCCN1CCC(C(=O)N2CCn3nc(Cc4ccccc4)cc3C2)C1 (stereo not given)	-1.27%	0.569%	-4.06%	-1.31%	-0.245%
CC1(C(=O)NC2CCCC2)Cn2c(c(-n3cccc3)c3ccccc32)C(=O)N1CCc1cccs1 (stereo not given)	4.49%	0%	3.13%	-3.64%	0.381%
O=C(CCn1ccc2cc(S(=O)(=O)N3CCCC3)ccc21)NC1CCN(Cc2ccccc2)CC1	-2.03%	5.36%	-11%	1.78%	2.2%
CC1(C)NC2N(C1=O)c1ccccc1C2(O)CC(C(=O)O)n1cnc2ccccc2c1=O (stereo not given)	0%	0.567%	5.34%	-9.85%	1.68%
COC(=O)CNC(=O)c1cc(-c2cccnc2)c2nncn2n1	-2.13%	-0.551%	1.14%	-2.67%	-3.62%
Cc1ccc(CN2C(=O)OC(c3cccc(NC(=O)c4ccc(F)cc4)c3)C2C(=O)NC2CC2)cc1 (stereo not given)	-4.97%	-2.75%	-3.38%	-4.81%	0.029%
CC(C)c1ccc(NC(=O)C(c2ccccc2)N(C)C(=O)Cc2c[nH]c3ccccc23)cc1 (stereo not given)	-2.37%	-30.4%	10.1%	-38.7%	-11.2%
NC(=O)[C@H]1C[C@@H](O)[C@H](O)[C@H]2[C@@H]1SC(=Nc1ccc(Cl)cc1)N2CC1CCCCC1	-5.7%	-6.67%	-2.94%	-24.4%	-22.7%
CCOCCCNc1nc2c(S(=O)(=O)c3ccc(Cl)cc3)nnn2c2ccccc12	3.84%	0.491%	5.79%	5.21%	0.996%
CCCn1c(=O)c2ccc(C(=O)NC3CCCCC3)cc2n2c(=O)n(Cc3ccccc3C)nc12	1.13%	5.08%	1.43%	2.8%	1.32%
